Where “and” joins values, the source holds several entries; their conditions need not be identical. Equal entries are not always repeated. The whole screen tested about 340,000 compounds, of which about 12,000 (3.5%) were called active. The shares of active, inactive and inconclusive entries below differ from those in the screen. The call rests on the fitted dose curve; in most records, active means well fitted inhibition curve with a large enough effect; inconclusive means small, poorly fitted or top-dose-only effect, or another doubt; inactive means no such curve, though single readings can be large or run the other way. Potencies beside an inconclusive call are fits to weak or partial responses and may not hold up.
Test: qHTS Assay for Inhibitors of Hepatitis C Virus (HCV)
Conditions: Huh7.5.1 HCVcc-Cre (HCVcc is cell-culture hepatitis C virus) infection, luciferase reporter, 44 h; activity change, negative = inhibition: at 41.8 µM (top of the series) unless noted
Outline: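 Cells (1,000/well) were plated 4 h before compound, then infected with HCVcc-Cre virus (~0.5 moi). After 44 h further culture, infection was read as luciferase luminescence following a 15 min substrate incubation at room temperature.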
On the % scale 0 is the no-effect control and ±100 the full control effect; potency means the concentration at half of the fitted maximal effect; tags describe the fitted curve by direction and shape.

Compound | Potency | activity change, negative = inhibition
CCCCC(=O)NC(c1ccc([N+](=O)[O-])cc1)c1c(O)ccc2ccccc12 (stereo not given) | inconclusive: 11.2 µM [inhibitor, partial curve, poor fit] | –
COC(=O)c1cc(Br)c(=O)n(CCc2ccccc2)c1 | – | inactive: 8.45%
Cc1ccc(S(=O)(=O)NC(=O)c2cccc(Br)c2)cc1 | inconclusive: 2.51 µM [inhibitor, full curve] | –
O=C(Cc1c(Cl)cccc1Cl)Nc1ccc(S(=O)(=O)Nc2ncccn2)cc1 | inconclusive: 2.82 µM [inhibitor, single point] | –
Cc1ccc(S(=O)(=O)N2CCC(C(=O)Nc3cc(C(F)(F)F)ccc3N3CCOCC3)CC2)cc1C | inconclusive: 14.1 µM [inhibitor, partial curve] | –
O=c1c(-c2ccc(O)cc2)coc2cc(O)cc(O)c12 | active: 0.891 µM | –
CC(Oc1ccc(Cl)cc1Cl)C(=O)Nc1ccc2oc(-c3ccncc3)nc2c1 (stereo not given) | active: 7.08 µM | –
CCOC(=O)C1CCCN(C(=O)C2CCN(S(=O)(=O)c3ccc(Cl)c(C(F)(F)F)c3)CC2)C1 (stereo not given) | inconclusive: 1.26 µM [inhibitor, full curve, poor fit] | –
Cc1cccc(-n2ncc3c(NCc4ccc5c(c4)OCO5)ncnc32)c1 | inconclusive: 31.6 µM [inhibitor, single point] | –
CC1=C([N+](=O)[O-])C(c2ccc(Cl)cc2)NC(=O)N1 (stereo not given) | – | inactive: -0.537%
O=c1c2[nH]c3ccc(Br)cc3c2ncn1Cc1ccncc1 | – | inactive: 20.2%
Cc1ccc(OS(=O)(=O)c2ccc(-c3csc(C)n3)s2)c(C)c1 | – | inconclusive: -58.9% [inhibitor]
COCCNC(=O)Nc1ccc2nc(C)sc2c1 | inconclusive: 3.55 µM [inhibitor, single point] | –
Cc1ccc(C2=NN(Cc3nnc(-c4ccccc4)o3)C(=O)SC2)cc1 | inconclusive: 31.6 µM [inhibitor, single point] | –
c1ccc(-c2nc3c4ccccc4ccn3c2CN2CCCCC2)cc1 | – | inactive: -18.7%
CCOC(=O)CNC(=O)CSc1nc2sc(C)c(C)c2c(=O)n1C | inconclusive: 2.51 µM [inhibitor, partial curve] | –
CCCCn1c(N)c(N(CCOC)C(=O)COC(=O)C(C)(C)Oc2ccc(Cl)cc2)c(=O)[nH]c1=O | – | inactive: -11.7%
COc1ccc(-c2nnc(NC(=O)CSc3ccc(Cl)cc3)s2)cc1OC | – | inactive: 2.16%
O=c1c2ccccc2nc(/C=C/c2ccccc2)n1CCc1ccccc1 | – | inactive: 0.371%
O=C(c1ccccc1)N1CCC(c2nc(-c3ccc(S(=O)(=O)NCC4CCCO4)cc3)no2)CC1 (stereo not given) | active: 2.82 µM | –
COc1ccc(NC(=O)C2CCN(S(=O)(=O)c3ccc4c(c3)NC(=O)C(C)S4)CC2)cc1 (stereo not given) | inconclusive: 3.55 µM [inhibitor, full curve] | –
Nc1cc2c(cc1Br)[nH]c(=O)c1ccccc12 | inconclusive: 15.8 µM [inhibitor, single point] | –
CN1CCN(C(=O)CCC(=O)NCc2ccc(F)cc2)CC1 | – | inactive: 5.23%
O/N=C/c1ccc2cccc(O)c2n1 | inconclusive: 31.6 µM [inhibitor, single point] | –

Compound | Potency | activity change, negative = inhibition
C=CCOC(=O)/C=C/C(=O)NC(N)=O | – | inactive: 2.65%
O=C(c1ccc(Cn2c(=S)[nH]c3ccc(Br)cc3c2=O)cc1)N1CCN(C2CCCCC2)CC1 | inconclusive: 15.8 µM [inhibitor, partial curve] | –
NC(=S)N/N=C/c1c(O)ccc2ccccc12 | inconclusive: 31.6 µM [inhibitor, single point] | –
CN1CCN(c2ccc(NC(=O)N3CCc4ccccc43)cc2)CC1 | – | inactive: 7.72%
CCSc1nc2sc3c(c2c(=O)n1-c1ccccc1)CCN(C(C)C)C3 | inconclusive: 20 µM [inhibitor, partial curve, poor fit] | –
CCc1cc(=O)oc2c(C)c(OCC(=O)N3C[C@H]4C[C@@H](C3)c3cccc(=O)n3C4)ccc12 | inconclusive: 3.98 µM [inhibitor, single point] | –
Cc1ccc(-c2cc(-c3ccccc3)nc(Cl)n2)cc1 | inconclusive: 22.4 µM [inhibitor, single point] | –
COc1nc(NC2CCCCC2)nc(N2CCCCCC2)n1 | – | inactive: -16.6%
CCOC(=O)c1cc2c(ccn2C)n1CC(=O)N1CCC(Cc2ccccc2)CC1 | inconclusive: 25.1 µM [inhibitor, single point] | –
Cc1cc(C(=O)OCC(=O)Nc2nc(-c3ccccc3)cs2)c(C)o1 | inconclusive: 5.62 µM [inhibitor, single point] | –
CCCc1cc(NCCCO)n2c(nc3ccccc32)c1C#N | inconclusive: 20 µM [inhibitor, partial curve, poor fit] | –
O=C(Nc1ccccc1N1CCCC1)c1ccc([N+](=O)[O-])cc1Cl | inconclusive: 31.6 µM [inhibitor, single point] | –
CN(C)CCCNc1oc(/C=C/c2ccccc2)nc1C#N | – | inactive: 0.0076%
Cc1ccc(-c2nnc(SCc3ccc(C#N)cc3)n2Cc2ccco2)cc1 | inconclusive: 3.55 µM [inhibitor, single point] | –
COCCNC(=O)c1cc2c3ccccc3n(C)c2s1 | inconclusive: 11.2 µM [inhibitor, partial curve] | –
CCOC(=O)c1nnc(-c2cccs2)nc1Oc1ccccc1C(=O)OC | – | inactive: 17.1%
O=C(CCNC(=O)c1ccccc1)Nc1cccnc1 | – | inactive: 21.5%
Cc1ccccc1C(=O)NNC(=S)NC(=O)c1ccccc1 | inconclusive: 3.55 µM [inhibitor, partial curve] | –
c1ccc2c(c1)oc1c(NCC3CCCO3)ncnc12 (stereo not given) | – | inactive: -24.9%
COc1ccc2nc(C)cc(SCC(=O)N/N=C/c3ccc(O)c(O)c3)c2c1 | inconclusive: 11.2 µM [inhibitor, single point] | –
CCn1cc([N+](=O)[O-])c(C(=O)Nc2c(C)nn(Cc3c(F)c(F)c(F)c(F)c3F)c2C)n1 | inconclusive: 35.5 µM [inhibitor, partial curve, poor fit] | –
COc1ccc(Cl)cc1NC(=O)COC(=O)c1cc(C)oc1C | inconclusive: 11.2 µM [inhibitor, single point] | –
COc1ccc(CN(CCC(C)C)S(=O)(=O)c2ccccc2Br)cc1 | inconclusive: 2.82 µM [inhibitor, single point] | –
CC1(C)C(=O)Nc2ccccc2N1C(=O)COC(=O)c1ccc(Cl)c(S(=O)(=O)NCc2ccccc2)c1 | inconclusive: 31.6 µM [inhibitor, single point] | –

Compound | Potency | activity change, negative = inhibition
COc1cccc(-n2c(SCC(=O)Nc3ccc4c(c3)CCC4)nc3ccccc3c2=O)c1 | inconclusive: 10 µM [inhibitor, partial curve] | –
Cc1nc(C)c(-c2csc(NCc3ccccc3)n2)s1 | inconclusive: 31.6 µM [inhibitor, single point] | –
COc1ccc(Cc2nnc(Nc3ccccc3OC)[nH]c2=O)cc1 | active: 2.82 µM | –
CN(Cc1ccccc1F)c1nc(-c2cccs2)nc2ccccc12 | inconclusive: 31.6 µM [inhibitor, single point] | –
CC(C)NC(=O)c1ccccc1NC(=O)CCc1ccccc1 | inconclusive: 31.6 µM [inhibitor, single point] | –
Oc1ccc(-c2nc3ccccc3nc2-c2ccc(O)cc2O)c(O)c1 | inconclusive: 10 µM [inhibitor, partial curve] | –
CCn1c(=O)cc(SCC(=O)N2CCN(C3CCCCC3)CC2)c2ccccc21 | inconclusive: 501 nM [inhibitor, full curve, poor fit] and inconclusive: 10 µM [inhibitor, single point] | –
O=C(COc1ccc(S(=O)(=O)N2CCOCC2)cc1Cl)NCc1ccco1 | – | inactive: -5.06%
Cc1ccc(C(=O)NCC(=O)OCC(=O)Nc2cc(S(=O)(=O)N3CCOCC3)ccc2Cl)s1 | inconclusive: 14.1 µM [inhibitor, single point] | –
CCSc1ccccc1C(=O)n1nnc2ccccc21 | inconclusive: 31.6 µM [inhibitor, partial curve] | –
Cc1ccc(CCNS(=O)(=O)c2ccc3c(c2)NC(=O)CCS3)cc1 | – | inactive: -25.9%
CN(C)/C=C/C(=O)c1ccc2noc(-c3cccc(F)c3)c2c1 | inconclusive: 25.1 µM [inhibitor, single point] | –
CC(Oc1cccc(Cl)c1)C(=O)Nc1cc(S(=O)(=O)N2CCOCC2)ccc1N1CCCCC1 (stereo not given) | active: 22.4 µM | –
Cn1c(N2CCOCC2)c(/C=N/OC(=O)c2ccc(F)cc2)c2ccccc21 | active: 3.55 µM | –
CN1CCN(c2nc(-c3cccs3)nc3ccccc23)CC1 | inconclusive: 2 µM [inhibitor, partial curve] | –
COC(=O)[C@H]1C[C@H]1[C@@H](NC(=O)c1ccc[nH]1)c1ccccc1 | inconclusive: 3.55 µM [inhibitor, single point] | –
O=C(CCn1nc(-c2ccc(Cl)cc2)ccc1=O)N1CCN(c2ccccn2)CC1 | inconclusive: 12.6 µM [inhibitor, single point] | –
O=[N+]([O-])c1ccc(N/N=C/c2sc(N3CCOCC3)nc2-c2ccccc2)c(S(=O)(=O)Nc2ccccc2Cl)c1 | active: 3.55 µM | –
CCC(C)NCCOCCOc1ccc(Cl)c2ccccc12 (stereo not given) | inconclusive: 31.6 µM [inhibitor, single point] | –
O=C1C=CC(=C(c2ccc(O)cc2)c2ccc(O)cc2)C=C1 | active: 10 µM | –
CCc1ccc2oc(C(=O)N3CCN(c4ccc(OC)cc4)CC3)cc(=O)c2c1 | inconclusive: 10 µM [inhibitor, partial curve] | –
CC(C)CCn1c(=O)c2ccccc2n2c(CN(C)Cc3ccccc3)nnc12 | inconclusive: 14.1 µM [inhibitor, single point] | –

Reference: PubChem BioAssay AID651820 (National Center for Advancing Translational Sciences (NCATS), 2012)
